# Screen size: about 410,000 compounds; about 6,400 (1.6%) were called active. Inconclusive results, whose numbers are uncertain, are shown with a selection of clear calls. Calls follow the shape of the dose curve; as a rule, active = well fitted inhibition curve with a large enough effect; inconclusive = small, poorly fitted or top-dose-only effect; inactive = no such curve, though single readings can be large or run the other way. No potency is given beside an inconclusive call; the fits are too rough.
# Target: Glucagon-like peptide 1 receptor (Homo sapiens) (UniProt P43220)
# Assay: qHTS of GLP-1 Receptor Inverse Agonists (Inhibition Mode); also: nearly all actives have a fitted effect of over 55% in size
# Conditions: HEK293 GLP-1R CRE-luciferase, luminescence, 24 h, GLP-1R form is constitutively active; activity change, negative = inhibition: at 38.3 µM (top of the series) unless noted
# How it was run: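 Using stably transfected HEK293 (constitutively active GLP-1R, cAMP-luciferase reporter), compounds were incubated 24 hr and luciferase measured by luminescence.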
# % is scaled to controls: 0 for no effect and ±100 for the full control effect; potency is read from the fitted curve at half-maximal effect; tags tell the direction and shape of the fitted curve.
# UniProt P43220, sequence (P43220 whole entry, looked up): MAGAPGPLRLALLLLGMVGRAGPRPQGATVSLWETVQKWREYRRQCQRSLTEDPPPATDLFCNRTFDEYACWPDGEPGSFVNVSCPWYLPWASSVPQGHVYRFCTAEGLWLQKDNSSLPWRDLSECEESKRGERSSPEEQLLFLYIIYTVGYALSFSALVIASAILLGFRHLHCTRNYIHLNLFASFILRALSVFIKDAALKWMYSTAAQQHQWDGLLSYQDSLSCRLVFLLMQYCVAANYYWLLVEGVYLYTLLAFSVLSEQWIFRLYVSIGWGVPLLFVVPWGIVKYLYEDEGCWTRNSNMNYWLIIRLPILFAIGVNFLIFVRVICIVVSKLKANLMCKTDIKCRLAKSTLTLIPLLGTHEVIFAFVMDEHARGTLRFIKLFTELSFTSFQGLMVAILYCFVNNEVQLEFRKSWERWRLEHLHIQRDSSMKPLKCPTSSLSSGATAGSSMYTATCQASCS
Structure (SMILES),Potency,"activity change, negative = inhibition"
Cc1ccc(OCC(O)CN2CC3(C)CC2CC(C)(C)C3)cc1 (stereo not drawn),"inconclusive [inhibitor, partial curve, poor fit]",–
COc1ccc(C(=O)/C(=C/c2cccs2)c2nc3ccccc3o2)cc1,active: 11.2 µM,–
COc1cccc(-n2nnnc2SCC(=O)N2CCCc3ccccc32)c1,–,inactive: 0%
CC(=O)Nc1cccc(-c2cc(-c3c(Cl)cccc3Cl)no2)c1,"inconclusive [inhibitor, single point]",–
COc1ccc2c(Sc3ccccc3)c(C(=O)NCCN(C)C)[nH]c2c1,"inconclusive [inhibitor, single point]",–
O=C(NCCc1ccc(Cl)cc1)c1ccc2nc(Cc3ccccc3)oc2c1,"inconclusive [inhibitor, single point]",–
Cc1cc(C)c(NC(=O)CSc2nc(=O)n(Cc3ccco3)c3c2CCC3)c(C)c1,–,inactive: 14.2%
O=c1c(O[C@@H]2O[C@H](CO)[C@@H](O)[C@H](O)[C@H]2O)c(-c2ccc(O)cc2)oc2cc(O)cc(O)c12,–,inactive: 5.98%
Cc1nc(N2CCN(c3ccccn3)CC2)c2c(C)c(C(=O)N3CCN(c4ccc(F)cc4)CC3)sc2n1,"inconclusive [inhibitor, single point]",–
CS(=O)(=O)c1ncc(N(Cc2ccccc2)Cc2ccco2)c(C(=O)Nc2cccc(C(F)(F)F)c2)n1,"inconclusive [inhibitor, single point]",–
CCCNC(=S)NC1CC2CCCC(C1)N2Cc1ccccc1OC (stereo not drawn),–,inactive: -11.1%
COc1ccc(C(c2c(O)cc(C)n(Cc3ccco3)c2=O)N2CCN(c3ccccc3)CC2)cc1 (stereo not drawn),"inconclusive [inhibitor, single point]",–
O=C(C1CCCN(S(=O)(=O)c2cc(Cl)ccc2Cl)C1)N1CCCC1 (stereo not drawn),"inconclusive [inhibitor, single point]",–
Cc1cccc(C)c1Cn1c(C)c(C(=O)NCc2ccc([N+](=O)[O-])cc2)sc1=O,"inconclusive [inhibitor, partial curve, poor fit]",–
CC(C)(C)c1ccc(OCCC(=O)Nc2cccc(S(=O)(=O)N3CCCCC3)c2)cc1,"inconclusive [inhibitor, partial curve, poor fit]",–
O=c1[nH]c(/C=C\c2ccc(O)cc2)nc(O)c1[N+](=O)[O-],–,inactive: 13.3%
CCOC(=O)c1ccc(Nc2cc(C)nc(N3CCOCC3)n2)cc1,"inconclusive [inhibitor, partial curve, poor fit]",–
COc1ccc(Cl)cc1NC(=O)C1CCN(c2ncnc3c2nc2n3CCCCC2)CC1,–,inactive: -2.44%
CCOC(=O)c1c(NC(=O)CN2CCCCC2)sc(CN(C)C)c1-c1ccccc1,"inconclusive [inhibitor, partial curve, poor fit]",–
Cc1ccccc1-c1cnc(C(O)c2ccc(-c3ccccc3)cc2)[nH]1 (stereo not drawn),"inconclusive [inhibitor, partial curve, poor fit]",–
COc1ccc(C(=S)N2CCOCC2)cc1OC(=O)c1ccccc1Cl,"inconclusive [inhibitor, partial curve]",–

Structure (SMILES),Potency,"activity change, negative = inhibition"
O=C(Nc1cccc(C(F)(F)F)c1)C(Sc1ncnc2ccccc12)c1ccccc1 (stereo not drawn),"inconclusive [inhibitor, single point]",–
O=C(Nc1ccccc1Cl)C1(c2ccccc2)CC1(Cl)Cl (stereo not drawn),"inconclusive [inhibitor, full curve, poor fit]",–
O=C(CCC(=O)N1Cc2ccccc2Oc2ncccc21)NCc1ccccc1Cl,–,inactive: -15%
Cc1c(-c2cccc(Cl)c2)nc2ccccc2c1C(=O)OCC(=O)N(C)C1CCS(=O)(=O)C1 (stereo not drawn),"inconclusive [inhibitor, single point]",–
Cc1ccccc1NC1=CC(=O)CC(C)(C)C1,–,inactive: -8.7%
Cc1ccc(C)n1-n1c(C)nc2sc3c(c2c1=O)CCCCC3,active: 11.2 µM,–
CCCOc1ccc(-c2cccc(NS(=O)(=O)c3cc(OC)ccc3OC)c2)nn1,–,inactive: 14.7%
CC1(C(=O)NS(=O)(=O)c2ccc3ccccc3c2)CCN1C(=O)C1(c2ccc(Cl)cc2)CCC1 (stereo not drawn),"inconclusive [inhibitor, single point]",–
CCN(CC)c1ccc(SS(=O)(=O)O)cc1,inactive,–
COc1ccc(OCC(=O)NNC(=S)NC(=O)c2ccc([N+](=O)[O-])cc2)cc1,–,inactive: 1.14%
Cc1ccc([C@@H]2CC=C(C(=O)O)[C@H](c3cccc(Cl)c3)N2S(=O)(=O)c2ccc(C)cc2)cc1,"inconclusive [inhibitor, partial curve, poor fit]",–
CCOC(=O)C1CCCN(C(=O)c2ccc(-c3ccccc3)cc2)CC1 (stereo not drawn),"inconclusive [inhibitor, partial curve, poor fit]",–
Cc1cc(C(=O)COC(=O)Cc2n[nH]c(=O)c3ccccc23)c(C)n1-c1cccc(C(F)(F)F)c1,active: 7.08 µM,–
CC(NCC(O)COc1ccc(Br)cc1)c1ccccc1 (stereo not drawn),"inconclusive [inhibitor, partial curve, poor fit]",–
C/C(=N\Nc1cc(N2CCOCC2)ncn1)c1ccccc1,"inconclusive [inhibitor, single point]",–
O=C(CCCOc1ccc(Br)cc1)NCCc1ccc(OC(F)F)cc1,"inconclusive [inhibitor, partial curve, poor fit]",–
CCOc1ccc(S(=O)(=O)N2CCCC(C(=O)NCc3ccco3)C2)cc1 (stereo not drawn),"inconclusive [inhibitor, single point]",–
CC(=O)c1ccc(OCc2cccc(C(F)(F)F)c2)cc1O,"inconclusive [inhibitor, single point]",–
CC(=O)N1CCN(c2ccc(NC(=O)c3ccc([N+](=O)[O-])o3)cc2Cl)CC1,–,inactive: 131%
Clc1ccc(-c2[nH]ncc2N=Nc2ccccc2)cc1,"inconclusive [inhibitor, single point]",–
COc1cc(/C=N/Nc2ncc(C(F)(F)F)cc2Cl)cc(OC)c1O,"inconclusive [inhibitor, single point]",–

Structure (SMILES),Potency,"activity change, negative = inhibition"
O=C(O)c1ccc(/C=N/Nc2ccc(F)cc2F)cc1,"inconclusive [inhibitor, full curve, poor fit]",–
Cc1cccc(CSc2cn(CC(=O)N3CCCCCC3)c3ccccc23)c1,"inconclusive [inhibitor, single point]",–
Cc1[nH]c2ccc(F)cc2c1CCN(Cc1cccnc1)C(=S)Nc1ccccc1,"inconclusive [inhibitor, single point]",–
CCC(c1nnnn1CCc1ccccc1)N(Cc1ccco1)Cc1cc2cc(C)cc(C)c2[nH]c1=O (stereo not drawn),"inconclusive [inhibitor, single point]",–
CN(C)CCCN(C(=O)c1ccco1)c1nc(-c2ccc(Cl)cc2)cs1,"inconclusive [inhibitor, single point]",–
CN(C)c1ccc(P(=O)(OCc2ccccc2)C(O)c2ccc(Br)cc2)cc1 (stereo not drawn),"inconclusive [inhibitor, partial curve, poor fit]",–
CC(C)Oc1ccc(C(=O)OCC(=O)NC2CCCCCC2)cc1,"inconclusive [inhibitor, partial curve]",–
NC(=O)c1ccc(NC(=O)COC(=O)/C=C/c2ccc(Br)o2)cc1,–,inactive: 9.34%
CSc1ccc(CN2CCC(C(=O)NCc3ccc(C)cc3)CC2)cc1,"inconclusive [inhibitor, partial curve, poor fit]",–
O=C(NC1CCCC1)C(c1ccccc1F)N(C(=O)c1ccco1)C1CCCC1 (stereo not drawn),"inconclusive [inhibitor, single point]",–
CCC(C(=O)NCCCc1ccccc1)c1ccccc1 (stereo not drawn),"inconclusive [inhibitor, single point]",–
COc1cccc(-c2nn(-c3ccccc3)cc2CN(C)Cc2ccno2)c1,"inconclusive [inhibitor, single point]",–
CCCOc1ccc(N2C(=O)CC(N3CCN(c4ccc([N+](=O)[O-])cc4)CC3)C2=O)cc1 (stereo not drawn),"inconclusive [inhibitor, partial curve, poor fit]",–
C=CCOC(=O)C1=C[C@@H](c2ccccc2)[C@H](CCCO)[C@@H](OCC)O1,"inconclusive [inhibitor, partial curve, poor fit]",–
C=C1[C@@H](O)[C@H](CC(C)C)N(Cc2ccccc2Br)S1(=O)=O,"inconclusive [inhibitor, partial curve, poor fit]",–
COc1ccc(C(CNC(=O)c2ccc(-c3ccccc3Cl)o2)N2CCCC2)cc1 (stereo not drawn),"inconclusive [inhibitor, partial curve, poor fit]",–
CCC1(O)CC(c2ccccc2)=NN1C(=O)c1ccccc1F (stereo not drawn),"inconclusive [inhibitor, partial curve, poor fit]",–
COc1ccc(CSC(=N)N)cc1[N+](=O)[O-],–,inactive: -17.5%
C=CCn1c(C)cc(C(=O)COc2ccc(S(=O)(=O)N3CCCC3)cc2[N+](=O)[O-])c1C,"inconclusive [inhibitor, single point]",–
COc1ccccc1Nc1ccc([N+](=O)[O-])cc1N,"inconclusive [inhibitor, single point]",–
CN(C)c1ccc(/C=C2\Oc3ccc(C#Cc4cccc(N)c4)cc3C2=O)cc1,"inconclusive [inhibitor, full curve, poor fit]",–

# From PubChem BioAssay AID624417 (National Center for Advancing Translational Sciences (NCATS), 2012)
